Most of the strong results are listed elsewhere, so they are rarer here than in the full data.
How the values were obtained:
Settings in all cases: concentration: 1 μM,replicates: in singlicate; n = 1
FER = tested on: FER
FES = tested on: FES
FGFR1 = tested on: FGFR1
FGFR2 = tested on: FGFR2
FGFR3 = tested on: FGFR3
FGFR4 = tested on: FGFR4
FGR = tested on: FGR
FLT1 = tested on: FLT1
FLT3-autoinhibited = tested on: FLT3-autoinhibited
FLT3 = tested on: FLT3
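Also: KINOMEscan kinase panel screen.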

Structure (SMILES) | %Inh (FER) | %Inh (FES) | %Inh (FGFR1) | %Inh (FGFR2) | %Inh (FGFR3) | %Inh (FGFR4) | %Inh (FGR) | %Inh (FLT1) | %Inh (FLT3-autoinhibited) | %Inh (FLT3)
CS(=O)(=O)c1ccccc1-c1nc(-c2ccc(F)cc2)c(-c2ccncc2)[nH]1 [SB-213663] | 5% | 0% | 0% | 3% | 0% | 0% | 1% | 0% | 0% | 27%
Cc1cc(C)cc(Oc2nccc(-c3c(-c4ccc(F)cc4)ncn3C3CCNCC3)n2)c1.O=C(O)C(F)(F)F.O=C(O)C(F)(F)F.O=C(O)C(F)(F)F [SB-284851] | 0% | 5% | 3% | 18% | 14% | 9% | 2% | 30% | 0% | 0%
O=C1NC(=O)C(c2ccccc2)=C1Nc1ccc(Cl)c(C(=O)O)c1 [SB-390532] | 0% | 0% | 24% | 0% | 37% | 23% | 14% | 17% | 0% | 0%
COc1ccc(C2=C(Nc3cccc(Cl)c3)C(=O)NC2=O)cc1 [SB-326892] | 0% | 16% | 29% | 7% | 12% | 0% | 37% | 10% | 0% | 0%
O=C1NC(=O)C(c2ccccc2)=C1Nc1cc(Cl)c(O)c(Cl)c1 [SB-390530] | 0% | 5% | 3% | 5% | 8% | 0% | 12% | 13% | 33% | 13%
O=C1NC(=O)C(c2ccc(Cl)cc2)=C1Nc1ccc(O)c(Cl)c1 [SB-405367] | 0% | 0% | 0% | 0% | 0% | 0% | 2% | 0% | 6% | 26%
Cc1ccc(C)c(Oc2nccc(-c3c(-c4ccc(F)cc4)ncn3C3CCNCC3)n2)c1.O=C(O)C(F)(F)F.O=C(O)C(F)(F)F.O=C(O)C(F)(F)F [SB-284852] | 0% | 12% | 10% | 0% | 3% | 3% | 60% | 12% | 0% | 6%
O=C1NC(=O)C(c2ccccc2Cl)=C1Nc1cccc(C(=O)O)c1 [SB-390526] | 0% | 0% | 0% | 29% | 22% | 6% | 33% | 19% | 4% | 4%
